The list shows a part of the results.

The subject of this test is PfSIP2 AP2 domain 1 (GST-tagged). The test is described as follows: gcPBM binding intensity (ln(normalized median fluorescence intensity)); higher = stronger DNA binding. The method, boiled down:
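GST-tagged P. falciparum DNA-binding domains, expressed in E. coli (about 25 μg on average), were applied for 1 h to an Agilent 4 × 180k array of primer-extended double-stranded 36-bp intergenic genomic probes plus negative controls. The binding buffer was 1× PBS with 1% milk, 0.2 mg/ml BSA, 0.5% salmon testes DNA and 0.03% Triton X-100. Bound protein was detected with Alexa488 anti-GST antibody and scanned at 488 nm. Binding intensity is the highest Masliner-normalised natural-log median intensity across replicate spots of either probe orientation.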
As for “TTTTGAATATGGATCTTATATATATTAAATAAATAA [CACACA_negctrl_site344]”, the “gcPBM binding intensity (ln)” value amounted to 6.72.

On to “ATTCCAGAAATATATTAACAAGGAAAATATAAAAAT [CACACA_negctrl_site343]”, for which the “gcPBM binding intensity (ln)” value is 6.78. Take “ATATATATTATATATGCATGCCAAATCTTTATAAAC [TGCATGCA_site1042]”: the “gcPBM binding intensity (ln)” value was 7.15.

For “ACATATATATATATATATATATATATATATAGATAG [CACACA_negctrl_site783]”, the “gcPBM binding intensity (ln)” value came out at 8.39. Next, “ACAAAAAAATATTTATGTACTTATTATATTTATAAT [XGTACX_site2059]”: 7.01. Next, “CTTTTTACTTAATACACACACACACTAAAAAAAAAA [CACACA_site6574]”: 7.44; “AAAACTAAATGTTATTCGCACACGGAATTTATTTAA [CACACA_site9221]”: 6.81.

As to “ATAAAGAAATTACACACATGCAATGAAAAAAAAAAA [TGCATGCA_site406]”, the “gcPBM binding intensity (ln)” value was determined as 6.96. Next, “TACTAAGAAGTATTTACACACCAACAAGGCGAAAAA [CACACA_site2944]”: 6.8; “ATATGTATAAAAATCCGTACATAAGTGTGCGTATAT [XGTACX_site4376]”: 7.16; “ATAAATAATATGTAAACACACAAAAAATAAAAATGA [CACACA_site1178]”: 7.17. As to “ATGTTTGAGCCTAAGGTGCATATAAAAATATATGTG [GTGCAC_site9690]”, the “gcPBM binding intensity (ln)” value was found to be 10.7.

Consider “GAGTTTATATTTTAAGCATGCATATGTTATTATTAT [TGCATGCA_site1049]”, for which the “gcPBM binding intensity (ln)” value is 7.12.

Consider “TATATCAAAAACGAGACATGCATGCCGTTCATTTTG [TGCATGCA_site211]”, for which the “gcPBM binding intensity (ln)” value came out at 6.6.

Consider “TTATTAACGGAACTCTGTACTTAAAAAATTTTAGAA [XGTACX_site8787]”, for which the “gcPBM binding intensity (ln)” value was determined as 7.07. In the case of “AAAAAAACAGAAAACACACAAATTATCTTATAATTA [CACACA_site6282]” it was 6.53; in that of “TATATAAGAATATATACACACATATCTGTATTTATA [CACACA_site5231]”, 6.9.

As for “ATTGTTTCATTAAAATGTACATAAATTGTGTATAAT [XGTACX_site5341]”, the “gcPBM binding intensity (ln)” value is 7.33.

For “TATATATATATTTAATGTACATGTTTATTTTATCAT [XGTACX_site499]”, the “gcPBM binding intensity (ln)” value came to 8.54. In the case of “AATAAAATAAAAAAAAATAAAAAAAAAATAAAAAAT [XGTACX_negctrl_site245]”, the “gcPBM binding intensity (ln)” value came out at 6.62. TTTATAAAGGGAAAGGTGCAAAAGGTGAAAGTTTTA: the “gcPBM binding intensity (ln)” value is 10.8.

As to “TATTTTTCTTTTTAAGTGCATGGTTGTATAAAATTT [GTGCAC_site9480]”, the “gcPBM binding intensity (ln)” value stood at 8.39. Next, “TCTTTTTTGAAGCATTTTGTTTTTTAATAAGTAAAA [TGCATGCA_negctrl_site247]”: 6.89; “ATATAATGAAGTGAATGTACATATAAAATGTAAAAA [XGTACX_site8052]”: 6.86.

“TTTTTATAAATAATAAGGCGTATGAAAATAAAATAA [TGCATGCA_negctrl_site421]”: the “gcPBM binding intensity (ln)” value is 7.13. In the case of “TCAAAATATCCAAAAGAATAAAGAAAAAAAAAAAGA [CACACA_negctrl_site1377]” it was 6.83; in that of “ATATAACATTGTTTTGCATGTAAATATTCAATTTTT [TGCATGCA_site758]”, 6.88. Next, “TCAAATTTAATCATAACACACATTCACATATGAATT [CACACA_site3199]”: 6.85. For the sequence “TAAAGCAACTGAAACACACAAATTTTTTTTTTTTTT [CACACA_site7499]”, the “gcPBM binding intensity (ln)” value is 6.8. Next, “AAACTGAAAAAAATATGTACATATTTATATCTTATA [XGTACX_site3011]”: 7.02; “ATTGTATAAAAATGTACATGCAATAAATTTAGTTCT [TGCATGCA_site675]”: 7.01; “AAAAAAAAAAAACACACACACAAATACAAATACATA [CACACA_site415]”: 7.07.

“GAAACGTTTTTTCAGTGTACATTTTACCGATTTGTA [XGTACX_site8249]”: the “gcPBM binding intensity (ln)” value is 7.03. Next, “TAGTATAATATATATTGTACGTTTTAATTGTTTATA [XGTACX_site2731]”: 6.85; “TAATAAATCAAATGCACACACACAAAAAAAAAAAAA [CACACA_site161]”: 7.31; “TTTTTATTTTTTTATGCATGTGATGAAACGTGCCTA [TGCATGCA_site141]”: 6.91. In the case of “ATAATTAACAAATACACACACACACCCAGACAAAAA [CACACA_site4445]”, the “gcPBM binding intensity (ln)” value is 7.27.

Turning to “TTTTTAATCATAATATGTACATATAAAAATGGTTTG [XGTACX_site3996]”, the “gcPBM binding intensity (ln)” value was 7.01. Consider “AATATGTCTTAAAAAAGTACATAAATTTTAACTTCA [XGTACX_site6670]”, for which the “gcPBM binding intensity (ln)” value turned out to be 7.1. Next, “AAAATATTAAATATGTGTACATATAATAGTTCAATG [XGTACX_site5957]”: 7.12.

Regarding “AAACAAATAAAAATATGTACACATTTTTTCATTATG [XGTACX_site5449]”, the “gcPBM binding intensity (ln)” value was 7.18. For the sequence “TTAAAAGAAAATAGGTGTACACATAATATATACATA [XGTACX_site7697]”, the “gcPBM binding intensity (ln)” value turned out to be 7.11. Next, “TGTGTATATATAAATACACACCAAATGTTAATATAT [CACACA_site8501]”: 6.93; “AACAATTAGAATAACGCATGCATTTATAATATAGAA [TGCATGCA_site595]”: 6.74.
